We go through 25 compounds from publication PMC4336329 (PLoS ONE, 2015).

Molecules are shown by their SMILES. In all, about 310,000 compounds went through this assay and about 2,200 (0.71%) showed an effect of 50% or more. The effect is printed as a negative number. The list shows a part of the results.

In this assay the target is human ether-à-go-go-related gene (hERG) potassium channel (human, UniProt Q12809). Put plainly: primary screen, population patch clamp on CHO cells stably expressing hERG.
Sequence of human ether-à-go-go-related gene (hERG) potassium channel (Q12809 whole entry, looked up): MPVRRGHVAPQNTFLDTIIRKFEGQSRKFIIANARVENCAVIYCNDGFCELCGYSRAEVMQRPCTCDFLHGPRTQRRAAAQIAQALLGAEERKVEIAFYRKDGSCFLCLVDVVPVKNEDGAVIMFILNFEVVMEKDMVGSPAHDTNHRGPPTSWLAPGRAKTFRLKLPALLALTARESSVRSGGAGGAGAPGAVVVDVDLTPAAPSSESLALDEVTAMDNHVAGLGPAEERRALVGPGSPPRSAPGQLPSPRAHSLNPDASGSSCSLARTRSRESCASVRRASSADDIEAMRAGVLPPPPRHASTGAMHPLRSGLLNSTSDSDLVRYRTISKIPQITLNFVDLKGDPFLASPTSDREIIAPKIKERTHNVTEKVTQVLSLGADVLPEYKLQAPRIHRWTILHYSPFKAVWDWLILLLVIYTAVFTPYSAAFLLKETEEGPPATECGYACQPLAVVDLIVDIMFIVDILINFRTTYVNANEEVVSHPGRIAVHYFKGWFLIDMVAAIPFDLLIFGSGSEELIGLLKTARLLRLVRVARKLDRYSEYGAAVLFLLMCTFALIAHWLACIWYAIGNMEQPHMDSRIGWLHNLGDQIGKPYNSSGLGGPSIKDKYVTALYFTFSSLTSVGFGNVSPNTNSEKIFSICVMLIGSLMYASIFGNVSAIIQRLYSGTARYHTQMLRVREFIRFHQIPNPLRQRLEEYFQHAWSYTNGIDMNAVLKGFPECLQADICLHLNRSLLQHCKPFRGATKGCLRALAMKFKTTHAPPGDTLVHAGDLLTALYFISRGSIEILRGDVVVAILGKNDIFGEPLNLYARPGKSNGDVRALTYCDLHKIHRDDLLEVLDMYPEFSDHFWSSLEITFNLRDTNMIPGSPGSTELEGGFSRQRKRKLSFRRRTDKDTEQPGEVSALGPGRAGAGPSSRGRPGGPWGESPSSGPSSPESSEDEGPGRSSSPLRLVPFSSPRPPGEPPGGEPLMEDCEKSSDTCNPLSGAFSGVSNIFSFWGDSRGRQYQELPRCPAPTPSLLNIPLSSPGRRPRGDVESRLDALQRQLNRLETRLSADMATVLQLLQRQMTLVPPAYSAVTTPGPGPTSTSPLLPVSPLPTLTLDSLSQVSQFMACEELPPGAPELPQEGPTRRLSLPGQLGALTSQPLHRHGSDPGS
`CCCc1nc2oc3ccccc3c(=O)c2c(=O)n1-c1ccc(C)cc1`: the “hERG current change (%, negative = inhibition) at 1uM” value was 13.9%.
As to `O=S(=O)(c1ccc(F)cc1)N1CCN(S(=O)(=O)c2cc(F)ccc2F)CC1`, the “hERG current change (%, negative = inhibition) at 1uM” value is 7.97%.
As for `COc1ccccc1-n1cnnc1SC(C)C(=O)Nc1ccc(NC(C)=O)cc1` (stereo not shown), the “hERG current change (%, negative = inhibition) at 1uM” value was found to be 7.06%.
On to `Cc1cccc(OCC(=O)Nc2cccc(O)c2)c1`, for which the “hERG current change (%, negative = inhibition) at 1uM” value came out at 2.59%.
The same measure for `COc1ccc(OC)c(C(=O)c2oc3ccccc3c2NC(C)=O)c1`: -1.97%.
On to `COc1cc(/C=C2/SC(=S)N(Cc3ccccc3)C2=O)cc(Cl)c1O`, for which the “hERG current change (%, negative = inhibition) at 1uM” value was 6.86%.
The same measure for `COc1ccc(Cl)cc1C(=O)NNC(=O)c1n[nH]c2ccccc12`: 9.2%; for `CCN(CC)c1nc2ccccc2[nH]1.Cl`: 6.44%.
Under `CCCSc1nnc2[nH]c(=O)cc(N)n12` stands 9.95%.
Under `COCc1ccc(C(=O)OC(C)C(=O)Nc2c(C)n(C)n(-c3ccccc3)c2=O)cc1` (stereo not shown) stands 6.77%; under `Clc1cccc(CSc2nccn2-c2ccccc2)c1`, 0.457%.
`COc1ccc(-c2noc(CN(C)C(=O)c3ccoc3C)n2)cc1OC`: the “hERG current change (%, negative = inhibition) at 1uM” value stood at 11.2%.
Take `CCN1C(=O)/C(=C\N(C)C)S/C1=N\S(=O)(=O)c1ccccc1`: the “hERG current change (%, negative = inhibition) at 1uM” value worked out at 4.97%.
As to `Cc1cc(C)n(C(=O)CN2C(=O)c3ccccc3C2=O)n1`, the “hERG current change (%, negative = inhibition) at 1uM” value turned out to be 11.5%.
Turning to `CC(C)C(=O)O/N=C1\CCS(=O)(=O)c2sccc21`, the “hERG current change (%, negative = inhibition) at 1uM” value was 11.6%.
Take `COc1ccc2c(c1)C(NC(C)=O)C(=O)N2C` (stereo not shown): the “hERG current change (%, negative = inhibition) at 1uM” value is -2.92%.
As for `CCO/C(=C/c1sc2ccc(OC)cc2[n+]1CCCS(=O)(=O)[O-])CC`, the “hERG current change (%, negative = inhibition) at 1uM” value is 9.05%.
Take `Cn1c(Br)nc2c1c(=O)n(CC(O)COc1ccccc1)c(=O)n2C` (stereo not shown): the “hERG current change (%, negative = inhibition) at 1uM” value was 9.46%.
For `CCN(C(=O)Cn1c(=O)oc2ccccc21)C1CCS(=O)(=O)C1` (stereo not shown), the “hERG current change (%, negative = inhibition) at 1uM” value was -1.04%.
Under `CN1CC(=O)N2Cc3[nH]c4ccccc4c3C[C@H]2C1=O` stands 14.8%; under `COc1ccc(NC(=O)CN2C(=O)c3cccc4cccc2c34)cc1OC`, 21.1%; under `CCOC(=O)CCC(NC(=O)CCCCCCCC(=O)NC(CCC(=O)OCC)C(=O)OCC)C(=O)OCC` (stereo not shown), 4.36%.
As for `CCOC(=O)C1CCCN(C(=O)CCc2ccccc2)C1` (stereo not shown), the “hERG current change (%, negative = inhibition) at 1uM” value is reported as -6.13%.
As to `Cc1ccc(C(=O)NC(=S)NNC(=O)c2cccc([N+](=O)[O-])c2)cc1`, the “hERG current change (%, negative = inhibition) at 1uM” value is reported as 23.1%.
For the compound `CCOC(=O)N1CCN(C(=O)CSc2nnc(-c3ccc(C(C)(C)C)cc3)o2)CC1`, the “hERG current change (%, negative = inhibition) at 1uM” value amounted to 11.5%.
